In the supplement of paper PMC3334620:
In all, about 33,000 sequences were measured (“E-score (-0.5 to 0.5)”: median about -0.036, highest 2% from about 0.37 on). The list shows a part of the results.

Molecular target: T1, Yer064c (UniProt P40041)
T1 sequence: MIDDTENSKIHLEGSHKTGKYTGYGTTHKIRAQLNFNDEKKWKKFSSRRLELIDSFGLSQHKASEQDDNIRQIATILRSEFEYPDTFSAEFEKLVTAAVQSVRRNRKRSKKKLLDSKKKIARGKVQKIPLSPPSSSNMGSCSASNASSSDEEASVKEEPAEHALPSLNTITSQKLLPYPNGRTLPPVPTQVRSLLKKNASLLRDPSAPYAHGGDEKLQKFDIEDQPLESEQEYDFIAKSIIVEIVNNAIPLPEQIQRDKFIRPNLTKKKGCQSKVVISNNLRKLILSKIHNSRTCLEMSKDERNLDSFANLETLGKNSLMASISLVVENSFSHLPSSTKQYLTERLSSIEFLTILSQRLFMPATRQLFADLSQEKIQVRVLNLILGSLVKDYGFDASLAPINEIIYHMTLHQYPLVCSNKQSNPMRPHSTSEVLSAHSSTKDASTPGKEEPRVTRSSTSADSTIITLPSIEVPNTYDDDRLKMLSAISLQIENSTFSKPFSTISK
Experiment: PBM E-score (8-mer binding enrichment) (E-score (-0.5 to 0.5)); higher = stronger / more preferred TF binding; most listed sequences are background and not binding sites
Details: protein concentration: 200 nM; construct: GST-full length
Method in brief: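 Using PURExpress in vitro transcription/translation, GST-tagged yeast transcription factors were made in full-length or DNA-binding-domain form. These were applied at about 100-200 nM to double-stranded universal all-10-mer Agilent arrays, and bound protein was detected with fluorescent anti-GST. Scans were normalised with masliner before the Universal PBM Analysis Suite assigned E-scores to ungapped eight-base words pooled with their reverse complements.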

Sequence	PBM E-score
CGTGTGCC	-0.285
GCAGCCCC	-0.358
ATGGCGCG	-0.291
AGGAGACC	-0.0781
CCGTGCGC	-0.102
GGATATTA	0.0521
ACCTTACG	-0.0139
CAACTCAG	0.0495
AGATGCAT	-0.0321
ACCAATAA	0.0479
CTGCGTAA	0.183
CACCCAAA	-0.0523
CTTTTGCA	0.0461
AAATTCAG	-0.0847
CCATAGGA	-0.0198
TCCAGGAA	-0.0363
ATCCAGAG	0.0498
AGTCAGCG	0.453
GAACCACC	0.121
GTGCAAAA	0.0677
CTTGACGC	-0.268
TCGCAAGA	0.0289
TCCCCTAA	-0.228
ACTGCTGC	0.00729
GTCGGAGA	0.168

Sequence	PBM E-score
ACTTGCGG	0.018
ACCAGCTG	-0.0217
AAGTCAGG	0.341
TACGTACA	-0.123
CGCTAGGC	-0.113
GGCCCCAA	-0.357
CATATCAA	0.0822
CAGGTATA	-0.0622
AAGATAGA	-0.0142
AACGCTGG	-0.188
ACGTATTC	-0.0455
AGCCGAAT	0.0167
GCTTCGCC	-0.273
CCTTATCG	0.0971
AGGTACGC	-0.191
CCAGACCC	-0.221
ACCAGATG	0.0404
CAGATTCG	0.0206
GGTGACAC	-0.0978
AGGCGCCA	-0.102
CGGGCCCC	-0.359
CCGAGGGA	-0.196
GGGACTCA	0.405
TCGCACGA	0.0317
CCTGCTCC	-0.19

Sequence	PBM E-score
AATCATGA	0.43
AATAAAAG	-0.0798
CCAAGTCA	0.317
TCAAGACA	-0.0364
AGTTTGGC	-0.228
AAAAACTT	-0.0194
CAGCGGGC	0.0753
CAAACAGG	-0.192
CAGCTCCA	-0.117
AATACAAG	-0.00695
CCGCCCCC	-0.312
CTCGAAAC	-0.00574
AAGCAAAA	0.0418
CACACGGG	-0.0636
GCTTCATA	-0.19
CTGTGGGA	-0.116
CAAATACA	-0.157
CTAATTTC	0.0706
GCGATAGC	-0.116
TAGAGAAA	-0.122
ATCGATCC	-0.143
CATGCGCG	-0.0174
ATGCTTGG	-0.113
CTACGAGA	0.0266
AGAAGAGA	0.00892

Sequence	PBM E-score
ATTTTTCA	0.135
AAGAAGTC	0.308
CCTCCCCG	-0.0676
AGGAATTA	0.24
CGATCAAA	0.0183
TAACCGCA	0.096
AATGGAGC	-0.0812
GGTCCGAC	0.0539
GGGTTAAA	0.0677
CTTCTGTA	-0.0492
CAGTTTCG	-0.0656
GCGACCGA	-0.116
AACTTCCC	-0.214
CGAGAAAG	0.0479
AAGTTTGC	-0.0507
CGAGCAGA	-0.0955
AACGCACA	-0.185
GCCGCGGC	-0.253
ATCATGGA	0.19
ATTTCCTC	-0.0754
CATAGCGG	-0.163
CGCTCTGC	0.121
AACTCGTA	-0.019
TGGTATAA	-0.0104
AGATATCA	0.0561

Sequence	PBM E-score
GAACTTCC	-0.0438
CATAACGC	-0.193
CATAGCGC	-0.00748
AAGCTCAG	0.0567
TAAGCTCA	0.0309
AAACGAAA	0.0828
CCACACGA	-0.129
CGTTTGAG	0.175
TAGGAACA	-0.0459
AACGCGTT	0.00692
GTTCCCCA	-0.163
GATGTGAA	-0.0458
AAACTTCC	-0.0375
GATATACC	-0.056
CTGGGAGC	-0.283
AGGAGGGC	-0.238
CCATTCCA	-0.228
CTGTGGGC	-0.194
GGCACCGA	-0.172
CCATACCC	-0.0548
CGGAGACA	0.0133
CAACAGAG	0.0683
AAAACATC	-0.0742
AACGCGTC	-0.185
GCGAAATA	-0.0954

Sequence	PBM E-score
GAAGCAAC	-0.179
CGCGGTGA	0.107
CCCCCGGA	-0.215
ACCCTTAT	-0.0558
AAAATTCG	0
AATCGCGC	0.141
AGCTCACC	-0.0458
ACAACCAT	0.204
AGTCCGAG	0.277
AGCACTGG	-0.154
TACTACTA	0.0844
GATCCAAA	0.0195
CCACTGAG	-0.0503
ACCGCATC	-0.0934
AGATCACC	0.0405
CGCGATTC	0.268
AACATTAA	-0.00496
TACCGGGA	-0.16
AGTACAGA	0.173
CTCATCTA	0.226
ACACTCGT	0.0295
CGAATCAG	0.384
ATACCTAG	0.0272
AAGAGGAG	-0.052
CACCTTTA	-0.0652

Sequence	PBM E-score
GAGTTATC	0.145
AGTGTGTA	0.0949
CATCCCAC	-0.0485
GATTCAAA	0.371
CAGAGCCG	-0.0738
CGGCGCCA	-0.2
ACGCCCCG	-0.191
CCTGACAC	0.023
ACTAATGG	0.171
GATAGTGC	-0.282
AATGTCCA	-0.315
CAAATTCA	-0.243
ACACCACT	0.0393
CCACCCGC	-0.0534
AACAAGCT	-0.278
GTTTGGGA	-0.0461
GTAATTGA	0.0754
ATGGCAAT	-0.0797
CTAGCTAC	-0.116
GACCGGGA	-0.157
GATTTACC	0.00206
AGTCGGGC	0.286
